In patent US5912231A, “Substitution analogues of magainin peptides” (priority 1994, dated 1999):
Read-outs that look alike come from different tables or passages of the source. Not every detail of the peptide structures is certain; ends, links or a residue may be inferred. Residues, ends and D or L forms follow the SMILES beside them.

Key:
Assay type in all cases: cell-based
Settings in all cases: LB medium, 6 h
[1] = system: Escherichia coli
Experimental: (§1) Antimicrobial assays (for Examples 3 to 27) were carried out in 96-well tissue culture plates. Each well was incubated with a given microorganism (Escherichia coli, Staphylococcus epidermidis, Staphylococcus aureus, or Pseudomonas aeruginosa) suspended in LB medium (Examples 3-17), or TSB medium (Examples 18-27). Upon the addition of Magainin I or its substitution analogues, (dissolved in 1×PBS, pH 7.0) each well contained a final cell density of 1.0×10^6 colony forming units (CFU)/ml. The final peptide concentrations used were 100 μg/ml., 75.0 μg/ml, 50.0 μg/ml, 25 μg/ml, 12.5 μg/ml, 10 μg/ml, 5μg/ml, 2.5 μg/ml, and 1.25 μg/ml.
(§2) Addition of peptides to the wells was defined as time zero. At six hours, the plates were placed in a Titertek Multiskan apparatus and the O.D.620 determined. The plates as well as the initial innoculum were incubated at 37° C.
(§3) Five wells per plate contained media alone, while five others contained medium plus cells. These controls were used to eliminate the possibility of media contamination while providing a measure of uninhibited growth of the microorganisms.
(§4) The degree of peptide activity was determined by comparing the substitution analogues with uninhibited growth of the control cells over a six-hour period.

[2] = system: Staphylococcus aureus
Experimental: as §1, §2, §3, §4

[3] = system: Staphylococcus epidermidis
Experimental: as §1, §2, §3, §4

| Compound | % effective growth inhibition of E. coli ([1]; at 2.5 μg/ml peptide) | % effective growth inhibition of S. epidermidis ([3]; at 25 μg/ml peptide) | % effective growth inhibition of S. aureus ([2]; at 100 μg/ml peptide) | other results |
| --- | --- | --- | --- | --- |
| CC[C@H](C)[C@H](NC(=O)CN)C(=O)N[C@@H](C)C(=O)N[C@@H](CCCCN)C(=O)N[C@@H](Cc1ccccc1)C(=O)N[C@@H](CC(C)C)C(=O)N[C@@H](Cc1c[nH]cn1)C(=O)N[C@@H](C)C(=O)N[C@@H](C)C(=O)NCC(=O)N[C@@H](CCCCN)C(=O)N[C@@H](Cc1ccccc1)C(=O)NCC(=O)N[C@@H](CCCCN)C(=O)N[C@@H](C)C(=O)N[C@@H](C)C(=O)N[C@H](C(=O)NCC(=O)N[C@@H](C)C(=O)N[C@H](C(=O)N[C@@H](CCSC)C(=O)N[C@@H](CCCCN)C(=O)N[C@@H](C)C(=O)O)[C@@H](C)CC)C(C)C (H-GIAKFLHAAGKFGKAAVGAIMKA-OH) | 90% | – | – | % effective growth inhibition of S. aureus ([2]; at 75 μg/ml peptide): 100% |
| CC[C@H](C)[C@H](NC(=O)CN)C(=O)N[C@@H](C)C(=O)N[C@@H](CCCCN)C(=O)N[C@@H](Cc1ccccc1)C(=O)N[C@@H](CC(C)C)C(=O)N[C@@H](Cc1c[nH]cn1)C(=O)N[C@@H](C)C(=O)N[C@@H](C)C(=O)NCC(=O)N[C@@H](CCCCN)C(=O)N[C@@H](Cc1ccccc1)C(=O)NCC(=O)N[C@@H](CCCCN)C(=O)N[C@@H](C)C(=O)N[C@@H](C)C(=O)N[C@H](C(=O)NCC(=O)N[C@@H](CCCCN)C(=O)N[C@H](C(=O)N[C@@H](CCSC)C(=O)N[C@@H](CCCCN)C(=O)N[C@@H](C)C(=O)O)[C@@H](C)CC)C(C)C (H-GIAKFLHAAGKFGKAAVGKIMKA-OH) | 100% | 100% | – | % effective growth inhibition of S. aureus ([2]; at 75 μg/ml peptide): 100% |
| CC[C@H](C)[C@H](NC(=O)CN)C(=O)NCC(=O)N[C@@H](CCCCN)C(=O)N[C@@H](Cc1ccccc1)C(=O)N[C@@H](CC(C)C)C(=O)N[C@@H](Cc1c[nH]cn1)C(=O)N[C@@H](CCCCN)C(=O)N[C@@H](C)C(=O)NCC(=O)N[C@@H](CCCCN)C(=O)N[C@@H](Cc1ccccc1)C(=O)NCC(=O)N[C@@H](CCCCN)C(=O)N[C@@H](C)C(=O)N[C@@H](Cc1ccccc1)C(=O)N[C@H](C(=O)NCC(=O)N[C@H](C(=O)N[C@@H](CCSC)C(=O)N[C@@H](CCCCN)C(=O)N[C@@H](CO)C(=O)O)[C@@H](C)CC)C(C)C (H-GIGKFLHKAGKFGKAFVGIMKS-OH) | 109% | – | – | % effective growth inhibition of S. epidermidis ([3]; at 10 μg/ml peptide): 84% |
| CC[C@H](C)[C@H](NC(=O)CN)C(=O)N[C@@H](C)C(=O)N[C@@H](CCCCN)C(=O)N[C@@H](Cc1ccccc1)C(=O)N[C@@H](CC(C)C)C(=O)N[C@@H](Cc1c[nH]cn1)C(=O)N[C@@H](CCCCN)C(=O)N[C@@H](C)C(=O)NCC(=O)N[C@@H](CCCCN)C(=O)N[C@@H](Cc1ccccc1)C(=O)NCC(=O)N[C@@H](CCCCN)C(=O)N[C@@H](C)C(=O)N[C@@H](C)C(=O)N[C@H](C(=O)NCC(=O)N[C@@H](C)C(=O)N[C@H](C(=O)N[C@@H](CCSC)C(=O)N[C@@H](CCCCN)C(=O)N[C@@H](C)C(=O)O)[C@@H](C)CC)C(C)C (H-GIAKFLHKAGKFGKAAVGAIMKA-OH) | 100% | 100% | – | % effective growth inhibition of S. aureus ([2]; at 50 μg/ml peptide): 100% |
| CC[C@H](C)[C@H](NC(=O)CN)C(=O)N[C@@H](C)C(=O)N[C@@H](CCCCN)C(=O)N[C@@H](Cc1ccccc1)C(=O)N[C@@H](CC(C)C)C(=O)N[C@@H](Cc1c[nH]cn1)C(=O)N[C@@H](C)C(=O)N[C@@H](CCCCN)C(=O)NCC(=O)N[C@@H](CCCCN)C(=O)N[C@@H](Cc1ccccc1)C(=O)NCC(=O)N[C@@H](CCCCN)C(=O)N[C@@H](C)C(=O)N[C@@H](C)C(=O)N[C@H](C(=O)NCC(=O)N[C@@H](C)C(=O)N[C@H](C(=O)N[C@@H](CCSC)C(=O)N[C@@H](CCCCN)C(=O)N[C@@H](C)C(=O)O)[C@@H](C)CC)C(C)C (H-GIAKFLHAKGKFGKAAVGAIMKA-OH) | – | – | 0% | % effective growth inhibition of E. coli ([1]; at 10 μg/ml peptide): 90% |
| CC[C@H](C)[C@H](NC(=O)CN)C(=O)NCC(=O)N[C@@H](CCCCN)C(=O)N[C@@H](Cc1ccccc1)C(=O)N[C@@H](CC(C)C)C(=O)N[C@@H](CCCCN)C(=O)N[C@@H](CO)C(=O)N[C@@H](C)C(=O)NCC(=O)N[C@@H](CCCCN)C(=O)N[C@@H](Cc1ccccc1)C(=O)NCC(=O)N[C@@H](CCCCN)C(=O)N[C@@H](C)C(=O)N[C@@H](Cc1ccccc1)C(=O)N[C@H](C(=O)NCC(=O)N[C@H](C(=O)N[C@@H](CCSC)C(=O)N[C@@H](CCCCN)C(=O)N[C@@H](CO)C(=O)O)[C@@H](C)CC)C(C)C (H-GIGKFLKSAGKFGKAFVGIMKS-OH) | 100% | – | – | % effective growth inhibition of S. epidermidis ([3]; at 12.5 μg/ml peptide): 97% |
| CC[C@H](C)[C@H](NC(=O)CN)C(=O)N[C@@H](CCCCN)C(=O)N[C@@H](CCCCN)C(=O)N[C@@H](Cc1ccccc1)C(=O)N[C@@H](CC(C)C)C(=O)N[C@@H](Cc1c[nH]cn1)C(=O)N[C@@H](CCCCN)C(=O)N[C@@H](CCCCN)C(=O)NCC(=O)N[C@@H](CCCCN)C(=O)N[C@@H](Cc1ccccc1)C(=O)NCC(=O)N[C@@H](CCCCN)C(=O)N[C@@H](C)C(=O)N[C@@H](C)C(=O)N[C@H](C(=O)NCC(=O)N[C@@H](CCCCN)C(=O)N[C@H](C(=O)N[C@@H](CCSC)C(=O)N[C@@H](CCCCN)C(=O)N[C@@H](CCCCN)C(=O)O)[C@@H](C)CC)C(C)C (H-GIKKFLHKKGKFGKAAVGKIMKK-OH) | 96% | – | 0% | – |
| CC[C@H](C)[C@H](NC(=O)CN)C(=O)N[C@@H](C)C(=O)N[C@@H](CCCCN)C(=O)N[C@@H](Cc1ccccc1)C(=O)N[C@@H](CC(C)C)C(=O)N[C@@H](Cc1c[nH]cn1)C(=O)N[C@@H](C)C(=O)N[C@@H](C)C(=O)NCC(=O)N[C@@H](CCCCN)C(=O)N[C@@H](Cc1ccccc1)C(=O)NCC(=O)N[C@@H](CCCCN)C(=O)N[C@@H](C)C(=O)N[C@@H](C)C(=O)N[C@H](C(=O)NCC(=O)N[C@@H](C)C(=O)N[C@H](C(=O)N[C@@H](CCSC)C(=O)N[C@@H](CCCCN)C(=O)N[C@@H](CCCCN)C(=O)O)[C@@H](C)CC)C(C)C (H-GIAKFLHAAGKFGKAAVGAIMKK-OH) | 100% | 100% | 74% | – |
| CC[C@H](C)[C@H](NC(=O)CN)C(=O)N[C@@H](CCCCN)C(=O)N[C@@H](CCCCN)C(=O)N[C@@H](Cc1ccccc1)C(=O)N[C@@H](CC(C)C)C(=O)N[C@@H](Cc1c[nH]cn1)C(=O)N[C@@H](C)C(=O)N[C@@H](C)C(=O)NCC(=O)N[C@@H](CCCCN)C(=O)N[C@@H](Cc1ccccc1)C(=O)NCC(=O)N[C@@H](CCCCN)C(=O)N[C@@H](C)C(=O)N[C@@H](C)C(=O)N[C@H](C(=O)NCC(=O)N[C@@H](C)C(=O)N[C@H](C(=O)N[C@@H](CCSC)C(=O)N[C@@H](CCCCN)C(=O)N[C@@H](C)C(=O)O)[C@@H](C)CC)C(C)C (H-GIKKFLHAAGKFGKAAVGAIMKA-OH) | 100% | 100% | – | % effective growth inhibition of S. aureus ([2]; at 25 μg/ml peptide): 100% |
